# In the supplement of paper PMC8728848:
# Some of the results follow.
# B1: Cohesin-mDC-ASGPR (Macaca mulatta) (protein)
# chain: LDITSHHHHHHDDLDAVRIKVDTVNAKPGDTVRIPVRFSGIPSKGIANCDFVYSYDPNVLEIIEIEPGDIIVDPNPDKSFDTAVYPDRKIIVFLFAEDSGTGAYAITKDGVFATIVAKVKEGAPNGLSVIKFVEVGGFANNDLVEQKTQFFDGGVNVGDTTEPATPTTPVTTPTTTDDLDAASSQNSKFQRDLVTLRTDFSNFTSNTVAEIQALTSQGSSVEEMIASLKAEVEVIKQEQQAVHSEMLLRVQRLMQDLNKLTCQVATLKNNASTERTCCPVNWVEHQDSCYWFSRSGMPWAEAEKHCQLENAHLVVINSREEQNFVQEHLSFAYTWMGLSDREGAWKWVDGTDYETGFQNWKPGQPDDWQGHGLGGGEDCAHFHPDGRWNDDVCQRPYYWVCEAGLTQASQESH
# How the values were obtained:
# Assay in all cases: glycan array binding signal (z-score within array); higher = stronger binding
# Details in all cases: glycan notation: IUPAC condensed, linker removed
# [1] = biological target: Fuc(a1-2)Gal6S(b1-3)GlcNAc6S
# Procedure, shortened: (§1)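 Negative Z-scores can be read as non-binding. The Z-score is calculated within each array and then averaged across arrays of one protein sequence at different concentrations or buffers and across linkers. Arrays, 3228 in all, were curated from the Consortium for Functional Glycomics database and kept only where the protein sequence was available.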
# Fuc(a1-2)Gal6S(b1-4)Glc = biological target: Fuc(a1-2)Gal6S(b1-4)Glc
# Procedure, shortened: as §1
# [2] = biological target: Fuc(a1-2)Gal6S(b1-4)Glc6S
# Procedure, shortened: as §1
# Fuc(a1-2)[Gal(a1-3)]Gal = biological target: Fuc(a1-2)[Gal(a1-3)]Gal
# Procedure, shortened: as §1
# [3] = biological target: Fuc(a1-2)[Gal(a1-3)]Gal(b1-3)GalNAc
# Procedure, shortened: as §1
# [4] = biological target: Fuc(a1-2)[Gal(a1-3)]Gal(b1-3)GalNAc(b1-3)Gal(a1-4)Gal(b1-4)Glc
# Procedure, shortened: as §1
# [5] = biological target: Fuc(a1-2)[Gal(a1-3)]Gal(b1-3)GlcNAc
# Procedure, shortened: as §1
# [6] = biological target: Fuc(a1-2)[Gal(a1-3)]Gal(b1-3)GlcNAc(b1-2)Man(a1-3)[Fuc(a1-2)[Gal(a1-3)]Gal(b1-3)GlcNAc(b1-2)Man(a1-6)]Man(b1-4)GlcNAc(b1-4)GlcNAc
# Procedure, shortened: as §1
# [7] = biological target: Fuc(a1-2)[Gal(a1-3)]Gal(b1-3)GlcNAc(b1-2)Man(a1-3)[Fuc(a1-2)[Gal(a1-3)]Gal(b1-3)GlcNAc(b1-2)Man(a1-6)]Man(b1-4)GlcNAc(b1-4)[Fuc(a1-6)]GlcNAc
# Procedure, shortened: as §1
# [8] = biological target: Fuc(a1-2)[Gal(a1-3)]Gal(b1-3)GlcNAc(b1-3)GalNAc
# Procedure, shortened: as §1
# [9] = biological target: Fuc(a1-2)[Gal(a1-3)]Gal(b1-3)GlcNAc(b1-6)GalNAc
# Procedure, shortened: as §1
# [10] = biological target: Fuc(a1-2)[Gal(a1-3)]Gal(b1-4)Glc
# Procedure, shortened: as §1
# [11] = biological target: Fuc(a1-2)[Gal(a1-3)]Gal(b1-4)GlcNAc
# Procedure, shortened: as §1
# [12] = biological target: Fuc(a1-2)[Gal(a1-3)]Gal(b1-4)GlcNAc(b1-2)Man
# Procedure, shortened: as §1
# [13] = biological target: Fuc(a1-2)[Gal(a1-3)]Gal(b1-4)GlcNAc(b1-2)Man(a1-3)[Fuc(a1-2)[Gal(a1-3)]Gal(b1-4)GlcNAc(b1-2)Man(a1-6)]Man(b1-4)GlcNAc(b1-4)GlcNAc
# Procedure, shortened: as §1
# [14] = biological target: Fuc(a1-2)[Gal(a1-3)]Gal(b1-4)GlcNAc(b1-2)Man(a1-3)[Fuc(a1-2)[Gal(a1-3)]Gal(b1-4)GlcNAc(b1-2)Man(a1-6)]Man(b1-4)GlcNAc(b1-4)[Fuc(a1-6)]GlcNAc
# Procedure, shortened: as §1
# [15] = biological target: Fuc(a1-2)[Gal(a1-3)]Gal(b1-4)GlcNAc(b1-3)GalNAc
# Procedure, shortened: as §1
# [16] = biological target: Fuc(a1-2)[Gal(a1-3)]Gal(b1-4)GlcNAc(b1-3)[Fuc(a1-2)[Gal(a1-3)]Gal(b1-4)GlcNAc(b1-6)]GalNAc
# Procedure, shortened: as §1
# [17] = biological target: Fuc(a1-2)[Gal(a1-3)]Gal(b1-4)GlcNAc(b1-6)GalNAc
# Procedure, shortened: as §1
# [18] = biological target: Fuc(a1-2)[Gal(a1-3)]Gal(b1-4)[Fuc(a1-3)]Glc
# Procedure, shortened: as §1
# [19] = biological target: Fuc(a1-2)[Gal(a1-3)]Gal(b1-4)[Fuc(a1-3)]GlcNAc
# Procedure, shortened: as §1
# [20] = biological target: Fuc(a1-2)[Gal(a1-3)]Gal(b1-4)[Fuc(a1-3)]GlcNAc(b1-3)GalNAc
# Procedure, shortened: as §1
# [21] = biological target: Fuc(a1-2)[Gal(a1-4)]Gal(b1-4)GlcNAc
# Procedure, shortened: as §1
# [22] = biological target: Fuc(a1-2)[GalNAc(a1-3)]Gal
# Procedure, shortened: as §1
# [23] = biological target: Fuc(a1-2)[GalNAc(a1-3)]Gal(b1-3)GalNAc(a1-3)[Fuc(a1-2)]Gal(b1-4)GlcNAc
# Procedure, shortened: as §1
# [24] = biological target: Fuc(a1-2)[GalNAc(a1-3)]Gal(b1-3)GalNAc(b1-3)Gal(a1-4)Gal(b1-4)Glc
# Procedure, shortened: as §1
# [25] = biological target: Fuc(a1-2)[GalNAc(a1-3)]Gal(b1-3)GlcNAc
# Procedure, shortened: as §1
# [26] = biological target: Fuc(a1-2)[GalNAc(a1-3)]Gal(b1-3)GlcNAc(b1-2)Man(a1-3)[Fuc(a1-2)[GalNAc(a1-3)]Gal(b1-3)GlcNAc(b1-2)Man(a1-6)]Man(b1-4)GlcNAc(b1-4)GlcNAc
# Procedure, shortened: as §1
# [27] = biological target: Fuc(a1-2)[GalNAc(a1-3)]Gal(b1-3)GlcNAc(b1-2)Man(a1-3)[Fuc(a1-2)[GalNAc(a1-3)]Gal(b1-3)GlcNAc(b1-2)Man(a1-6)]Man(b1-4)GlcNAc(b1-4)[Fuc(a1-6)]GlcNAc
# Procedure, shortened: as §1
# [28] = biological target: Fuc(a1-2)[GalNAc(a1-3)]Gal(b1-3)GlcNAc(b1-3)GalNAc
# Procedure, shortened: as §1
# [29] = biological target: Fuc(a1-2)[GalNAc(a1-3)]Gal(b1-3)GlcNAc(b1-6)GalNAc
# Procedure, shortened: as §1
# [30] = biological target: Fuc(a1-2)[GalNAc(a1-3)]Gal(b1-4)Glc
# Procedure, shortened: as §1
# [31] = biological target: Fuc(a1-2)[GalNAc(a1-3)]Gal(b1-4)GlcNAc
# Procedure, shortened: as §1
# [32] = biological target: Fuc(a1-2)[GalNAc(a1-3)]Gal(b1-4)GlcNAc(b1-2)Man
# Procedure, shortened: as §1
# [33] = biological target: Fuc(a1-2)[GalNAc(a1-3)]Gal(b1-4)GlcNAc(b1-2)Man(a1-3)[Fuc(a1-2)[GalNAc(a1-3)]Gal(b1-4)GlcNAc(b1-2)Man(a1-6)]Man(b1-4)GlcNAc(b1-4)GlcNAc
# Procedure, shortened: as §1
# [34] = biological target: Fuc(a1-2)[GalNAc(a1-3)]Gal(b1-4)GlcNAc(b1-2)Man(a1-3)[Fuc(a1-2)[GalNAc(a1-3)]Gal(b1-4)GlcNAc(b1-2)Man(a1-6)]Man(b1-4)GlcNAc(b1-4)[Fuc(a1-6)]GlcNAc
# Procedure, shortened: as §1
# [35] = biological target: Fuc(a1-2)[GalNAc(a1-3)]Gal(b1-4)GlcNAc(b1-3)Gal(b1-4)GlcNAc
# Procedure, shortened: as §1
# [36] = biological target: Fuc(a1-2)[GalNAc(a1-3)]Gal(b1-4)GlcNAc(b1-3)Gal(b1-4)GlcNAc(b1-3)Gal(b1-4)GlcNAc
# Procedure, shortened: as §1
# [37] = biological target: Fuc(a1-2)[GalNAc(a1-3)]Gal(b1-4)GlcNAc(b1-3)GalNAc
# Procedure, shortened: as §1
# [38] = biological target: Fuc(a1-2)[GalNAc(a1-3)]Gal(b1-4)GlcNAc(b1-3)[Fuc(a1-2)[GalNAc(a1-3)]Gal(b1-4)GlcNAc(b1-6)]GalNAc
# Procedure, shortened: as §1
# [39] = biological target: Fuc(a1-2)[GalNAc(a1-3)]Gal(b1-4)GlcNAc(b1-6)GalNAc
# Procedure, shortened: as §1
# [40] = biological target: Fuc(a1-2)[GalNAc(a1-3)]Gal(b1-4)[Fuc(a1-3)]GlcNAc
# Procedure, shortened: as §1
# [41] = biological target: Fuc(a1-2)[GalNAc(a1-3)]Gal(b1-4)[Fuc(a1-3)]GlcNAc(b1-3)GalNAc
# Procedure, shortened: as §1
# [42] = biological target: Fuc(a1-2)[GalNAc(a1-4)]Gal(b1-4)GlcNAc
# Procedure, shortened: as §1
# [43] = biological target: Fuc(a1-2)[GalNAc(b1-3)]Gal
# Procedure, shortened: as §1
binder,measurement,setting,value
B1,glycan array binding signal (z-score),[1],0.635
same,glycan array binding signal (z-score),Fuc(a1-2)Gal6S(b1-4)Glc,-0.401
same,glycan array binding signal (z-score),[2],-0.339
same,glycan array binding signal (z-score),Fuc(a1-2)[Gal(a1-3)]Gal,-0.399
same,glycan array binding signal (z-score),[3],-0.412
same,glycan array binding signal (z-score),[4],-0.416
same,glycan array binding signal (z-score),[5],-0.25
same,glycan array binding signal (z-score),[6],-0.41
same,glycan array binding signal (z-score),[7],-0.388
same,glycan array binding signal (z-score),[8],-0.392
same,glycan array binding signal (z-score),[9],2.27
same,glycan array binding signal (z-score),[10],-0.388
same,glycan array binding signal (z-score),[11],-0.392
same,glycan array binding signal (z-score),[12],-0.34
same,glycan array binding signal (z-score),[13],-0.431
same,glycan array binding signal (z-score),[14],-0.329
same,glycan array binding signal (z-score),[15],-0.396
same,glycan array binding signal (z-score),[16],-0.357
same,glycan array binding signal (z-score),[17],-0.353
same,glycan array binding signal (z-score),[18],-0.407
same,glycan array binding signal (z-score),[19],-0.41
same,glycan array binding signal (z-score),[20],-0.411
same,glycan array binding signal (z-score),[21],-0.397
same,glycan array binding signal (z-score),[22],2.65
same,glycan array binding signal (z-score),[23],0.999
same,glycan array binding signal (z-score),[24],2.18
same,glycan array binding signal (z-score),[25],2.65
same,glycan array binding signal (z-score),[26],2.2
same,glycan array binding signal (z-score),[27],2.82
same,glycan array binding signal (z-score),[28],-0.207
same,glycan array binding signal (z-score),[29],3.22
same,glycan array binding signal (z-score),[30],2.19
same,glycan array binding signal (z-score),[31],2.19
same,glycan array binding signal (z-score),[32],2.31
same,glycan array binding signal (z-score),[33],1.06
same,glycan array binding signal (z-score),[34],0.667
same,glycan array binding signal (z-score),[35],2.48
same,glycan array binding signal (z-score),[36],1.17
same,glycan array binding signal (z-score),[37],-0.242
same,glycan array binding signal (z-score),[38],2.34
same,glycan array binding signal (z-score),[39],3.46
same,glycan array binding signal (z-score),[40],0.425
same,glycan array binding signal (z-score),[41],-0.231
same,glycan array binding signal (z-score),[42],3.47
same,glycan array binding signal (z-score),[43],2.61
